The other results are listed elsewhere or left out. The list includes weakly bound sequences.

The target in this test is T1, MBP-FoxP3dN (UniProt Q99JB6).
T1 sequence: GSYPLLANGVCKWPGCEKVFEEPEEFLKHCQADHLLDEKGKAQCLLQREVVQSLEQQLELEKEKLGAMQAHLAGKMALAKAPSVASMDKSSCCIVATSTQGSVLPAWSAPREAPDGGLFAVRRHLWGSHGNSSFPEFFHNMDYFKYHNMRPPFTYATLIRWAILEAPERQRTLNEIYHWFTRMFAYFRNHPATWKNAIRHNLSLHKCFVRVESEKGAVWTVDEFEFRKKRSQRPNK
As to the kind of experiment: PD-seq (MBP pull-down with sequencing). The conditions noted are these: 20 mM Tris-HCl pH 7.5, 100 mM NaCl, 1.5 mM MgCl2, 0.4 uM protein, 0.1 uM dsDNA library, 30 min, room temperature, amylose pull-down; high values mean tight binding; double strand, one strand shown.
With “GATGATTGTTCTCCCAGCTGATGAATTACCCTCCTCGAGTAAACAAATTTTCCTAATCTTTCTGTTCAAGCGCCATCTAC”, the binding signal (RPM ratio (pull-down/input)) is 0.3. As for “GATGATTGTTCTCCCAGCTGATGAATTTACCGGTTCGAGTAAACAAATTTTCCTAATCTTTCTGTTCAAGCGCCATCTAC”, the figure is 0.394; as for “GATGATTGTTCTCCCAGCTGATGAATTATACTCCTCGAGTAAACAAATTTTCCTAATCTTTCTGTTCAAGCGCCATCTAC”, 0.429; as for “GATGATTGTTCTCCCAGCTGATGAATTAACATAGTCGAGTAAACAAATTTTCCTAATCTTTCTGTTCAAGCGCCATCTAC”, 0.373. With “GATGATTGTTCTCCCAGCTGATGAATTCGCACATTCGAGTAAACAAATTTTCCTAATCTTTCTGTTCAAGCGCCATCTAC” the figure was 0.519. With “GATGATTGTTCTCCCAGCTGATGAATTAGGATGATCGAGTAAACAAATTTTCCTAATCTTTCTGTTCAAGCGCCATCTAC” the figure was 0.444; with “GATGATTGTTCTCCCAGCTGATGAATTGACAATATCGAGTAAACAAATTTTCCTAATCTTTCTGTTCAAGCGCCATCTAC”, 0.943. As to “GATGATTGTTCTCCCAGCTGATGAATTGAGCCTTTCGAGTAAACAAATTTTCCTAATCTTTCTGTTCAAGCGCCATCTAC”, the binding signal (RPM ratio (pull-down/input)) is 4.46. With “GATGATTGTTCTCCCAGCTGATGAATTCTGAGAGTCGAGTAAACAAATTTTCCTAATCTTTCTGTTCAAGCGCCATCTAC” the figure was 0.335; with “GATGATTGTTCTCCCAGCTGATGAATTTCAGTCTTCGAGTAAACAAATTTTCCTAATCTTTCTGTTCAAGCGCCATCTAC”, 0.375. As for “GATGATTGTTCTCCCAGCTGATGAATTTACAGGATCGAGTAAACAAATTTTCCTAATCTTTCTGTTCAAGCGCCATCTAC”, the figure is 0.329; as for “GATGATTGTTCTCCCAGCTGATGAATTAGGACCCTCGAGTAAACAAATTTTCCTAATCTTTCTGTTCAAGCGCCATCTAC”, 0.409; as for “GATGATTGTTCTCCCAGCTGATGAATTAACCTTATCGAGTAAACAAATTTTCCTAATCTTTCTGTTCAAGCGCCATCTAC”, 0.312.

For “GATGATTGTTCTCCCAGCTGATGAATTCACCATATCGAGTAAACAAATTTTCCTAATCTTTCTGTTCAAGCGCCATCTAC”, the binding signal (RPM ratio (pull-down/input)) stood at 0.421. With “GATGATTGTTCTCCCAGCTGATGAATTCTAAGCGTCGAGTAAACAAATTTTCCTAATCTTTCTGTTCAAGCGCCATCTAC” the figure was 0.403; with “GATGATTGTTCTCCCAGCTGATGAATTAAGGAACTCGAGTAAACAAATTTTCCTAATCTTTCTGTTCAAGCGCCATCTAC”, 0.231. With “GATGATTGTTCTCCCAGCTGATGAATTGGTCGGGTCGAGTAAACAAATTTTCCTAATCTTTCTGTTCAAGCGCCATCTAC” the figure was 0.326; with “GATGATTGTTCTCCCAGCTGATGAATTCCAACGGTCGAGTAAACAAATTTTCCTAATCTTTCTGTTCAAGCGCCATCTAC”, 0.235; with “GATGATTGTTCTCCCAGCTGATGAATTAATTCACTCGAGTAAACAAATTTTCCTAATCTTTCTGTTCAAGCGCCATCTAC”, 0.424. For “GATGATTGTTCTCCCAGCTGATGAATTAGGGTTCTCGAGTAAACAAATTTTCCTAATCTTTCTGTTCAAGCGCCATCTAC”, the binding signal (RPM ratio (pull-down/input)) was 0.853. On to “GATGATTGTTCTCCCAGCTGATGAATTCCAGAGCTCGAGTAAACAAATTTTCCTAATCTTTCTGTTCAAGCGCCATCTAC”, for which the binding signal (RPM ratio (pull-down/input)) worked out at 0.185. As to “GATGATTGTTCTCCCAGCTGATGAATTGCCAATCTCGAGTAAACAAATTTTCCTAATCTTTCTGTTCAAGCGCCATCTAC”, the binding signal (RPM ratio (pull-down/input)) was determined as 0.57. Take “GATGATTGTTCTCCCAGCTGATGAATTACGTCTCTCGAGTAAACAAATTTTCCTAATCTTTCTGTTCAAGCGCCATCTAC”: the binding signal (RPM ratio (pull-down/input)) was 0.945. As for “GATGATTGTTCTCCCAGCTGATGAATTGTGCCTCTCGAGTAAACAAATTTTCCTAATCTTTCTGTTCAAGCGCCATCTAC”, the figure is 6.79; as for “GATGATTGTTCTCCCAGCTGATGAATTCGAATTATCGAGTAAACAAATTTTCCTAATCTTTCTGTTCAAGCGCCATCTAC”, 0.752; as for “GATGATTGTTCTCCCAGCTGATGAATTAGAGCCTTCGAGTAAACAAATTTTCCTAATCTTTCTGTTCAAGCGCCATCTAC”, 1.74. As for “GATGATTGTTCTCCCAGCTGATGAATTAGTCGAATCGAGTAAACAAATTTTCCTAATCTTTCTGTTCAAGCGCCATCTAC”, the figure is 0.354; as for “GATGATTGTTCTCCCAGCTGATGAATTTCATTAATCGAGTAAACAAATTTTCCTAATCTTTCTGTTCAAGCGCCATCTAC”, 0.25.

As for “GATGATTGTTCTCCCAGCTGATGAATTGCCTGACTCGAGTAAACAAATTTTCCTAATCTTTCTGTTCAAGCGCCATCTAC”, the binding signal (RPM ratio (pull-down/input)) turned out to be 0.488. Take “GATGATTGTTCTCCCAGCTGATGAATTAACATGTTCGAGTAAACAAATTTTCCTAATCTTTCTGTTCAAGCGCCATCTAC”: the binding signal (RPM ratio (pull-down/input)) worked out at 0.574. With “GATGATTGTTCTCCCAGCTGATGAATTTCTTAGATCGAGTAAACAAATTTTCCTAATCTTTCTGTTCAAGCGCCATCTAC” the figure was 0.188. For the sequence “GATGATTGTTCTCCCAGCTGATGAATTTGCTTTATCGAGTAAACAAATTTTCCTAATCTTTCTGTTCAAGCGCCATCTAC”, the binding signal (RPM ratio (pull-down/input)) amounted to 3.94. As to “GATGATTGTTCTCCCAGCTGATGAATTTCGGGTTTCGAGTAAACAAATTTTCCTAATCTTTCTGTTCAAGCGCCATCTAC”, the binding signal (RPM ratio (pull-down/input)) was 0.597. With “GATGATTGTTCTCCCAGCTGATGAATTACTTCCGTCGAGTAAACAAATTTTCCTAATCTTTCTGTTCAAGCGCCATCTAC” the figure was 0.226; with “GATGATTGTTCTCCCAGCTGATGAATTGATGCCCTCGAGTAAACAAATTTTCCTAATCTTTCTGTTCAAGCGCCATCTAC”, 1.85; with “GATGATTGTTCTCCCAGCTGATGAATTATTTTCGTCGAGTAAACAAATTTTCCTAATCTTTCTGTTCAAGCGCCATCTAC”, 0.869. Turning to “GATGATTGTTCTCCCAGCTGATGAATTAATAGCATCGAGTAAACAAATTTTCCTAATCTTTCTGTTCAAGCGCCATCTAC”, the binding signal (RPM ratio (pull-down/input)) came out at 1.2. As for “GATGATTGTTCTCCCAGCTGATGAATTCTTCATCTCGAGTAAACAAATTTTCCTAATCTTTCTGTTCAAGCGCCATCTAC”, the binding signal (RPM ratio (pull-down/input)) worked out at 0.286.

For “GATGATTGTTCTCCCAGCTGATGAATTGAAAGGTTCGAGTAAACAAATTTTCCTAATCTTTCTGTTCAAGCGCCATCTAC”, the binding signal (RPM ratio (pull-down/input)) was determined as 0.22. On to “GATGATTGTTCTCCCAGCTGATGAATTTAGCATTTCGAGTAAACAAATTTTCCTAATCTTTCTGTTCAAGCGCCATCTAC”, for which the binding signal (RPM ratio (pull-down/input)) was 6.35.

Regarding “GATGATTGTTCTCCCAGCTGATGAATTACGCTAATCGAGTAAACAAATTTTCCTAATCTTTCTGTTCAAGCGCCATCTAC”, the binding signal (RPM ratio (pull-down/input)) came to 0.434. As for “GATGATTGTTCTCCCAGCTGATGAATTCTAATGTTCGAGTAAACAAATTTTCCTAATCTTTCTGTTCAAGCGCCATCTAC”, the figure is 1.19. With “GATGATTGTTCTCCCAGCTGATGAATTCCGGTATTCGAGTAAACAAATTTTCCTAATCTTTCTGTTCAAGCGCCATCTAC” the figure was 0.909; with “GATGATTGTTCTCCCAGCTGATGAATTTTTGGCCTCGAGTAAACAAATTTTCCTAATCTTTCTGTTCAAGCGCCATCTAC”, 0.38; with “GATGATTGTTCTCCCAGCTGATGAATTTAATCTGTCGAGTAAACAAATTTTCCTAATCTTTCTGTTCAAGCGCCATCTAC”, 0.341.

Regarding “GATGATTGTTCTCCCAGCTGATGAATTCAAATCGTCGAGTAAACAAATTTTCCTAATCTTTCTGTTCAAGCGCCATCTAC”, the binding signal (RPM ratio (pull-down/input)) came to 0.322. Consider “GATGATTGTTCTCCCAGCTGATGAATTGTGATATTCGAGTAAACAAATTTTCCTAATCTTTCTGTTCAAGCGCCATCTAC”, for which the binding signal (RPM ratio (pull-down/input)) amounted to 3.33. As for “GATGATTGTTCTCCCAGCTGATGAATTGGCCGGATCGAGTAAACAAATTTTCCTAATCTTTCTGTTCAAGCGCCATCTAC”, the figure is 0.187. Take “GATGATTGTTCTCCCAGCTGATGAATTAACTCGTTCGAGTAAACAAATTTTCCTAATCTTTCTGTTCAAGCGCCATCTAC”: the binding signal (RPM ratio (pull-down/input)) came out at 0.315. As for “GATGATTGTTCTCCCAGCTGATGAATTGATCTGTTCGAGTAAACAAATTTTCCTAATCTTTCTGTTCAAGCGCCATCTAC”, the figure is 0.343; as for “GATGATTGTTCTCCCAGCTGATGAATTACTTAAATCGAGTAAACAAATTTTCCTAATCTTTCTGTTCAAGCGCCATCTAC”, 0.263.

In the case of “GATGATTGTTCTCCCAGCTGATGAATTAGGAACTTCGAGTAAACAAATTTTCCTAATCTTTCTGTTCAAGCGCCATCTAC”, the binding signal (RPM ratio (pull-down/input)) is 0.262. Regarding “GATGATTGTTCTCCCAGCTGATGAATTATCAAGGTCGAGTAAACAAATTTTCCTAATCTTTCTGTTCAAGCGCCATCTAC”, the binding signal (RPM ratio (pull-down/input)) was 0.195. With “GATGATTGTTCTCCCAGCTGATGAATTCCGCGCCTCGAGTAAACAAATTTTCCTAATCTTTCTGTTCAAGCGCCATCTAC” the figure was 1.68; with “GATGATTGTTCTCCCAGCTGATGAATTGCTCATCTCGAGTAAACAAATTTTCCTAATCTTTCTGTTCAAGCGCCATCTAC”, 0.647; with “GATGATTGTTCTCCCAGCTGATGAATTTCAAAGATCGAGTAAACAAATTTTCCTAATCTTTCTGTTCAAGCGCCATCTAC”, 0.164. As for “GATGATTGTTCTCCCAGCTGATGAATTAAATCAATCGAGTAAACAAATTTTCCTAATCTTTCTGTTCAAGCGCCATCTAC”, the figure is 0.351; as for “GATGATTGTTCTCCCAGCTGATGAATTACCCGTATCGAGTAAACAAATTTTCCTAATCTTTCTGTTCAAGCGCCATCTAC”, 0.4.

Take “GATGATTGTTCTCCCAGCTGATGAATTGTTTGTCTCGAGTAAACAAATTTTCCTAATCTTTCTGTTCAAGCGCCATCTAC”: the binding signal (RPM ratio (pull-down/input)) was 7.63. As to “GATGATTGTTCTCCCAGCTGATGAATTTGCTCCTTCGAGTAAACAAATTTTCCTAATCTTTCTGTTCAAGCGCCATCTAC”, the binding signal (RPM ratio (pull-down/input)) is 0.486. With “GATGATTGTTCTCCCAGCTGATGAATTTGTGGTCTCGAGTAAACAAATTTTCCTAATCTTTCTGTTCAAGCGCCATCTAC” the figure was 5.25; with “GATGATTGTTCTCCCAGCTGATGAATTGATCTAATCGAGTAAACAAATTTTCCTAATCTTTCTGTTCAAGCGCCATCTAC”, 0.356. In the case of “GATGATTGTTCTCCCAGCTGATGAATTTCCTCTGTCGAGTAAACAAATTTTCCTAATCTTTCTGTTCAAGCGCCATCTAC”, the binding signal (RPM ratio (pull-down/input)) was 0.238.

Source of the values: publication PMC12820563.
